# Assay results reported in the supplement of paper PMC8728848.
# Some of the results follow.
# Key:
# Assay in all cases: glycan array binding signal (z-score within array); higher = stronger binding
# Settings in all cases: glycan notation: IUPAC condensed, linker removed
# [1] = target: Gal(b1-4)GlcNAc(b1-2)[Gal(b1-4)GlcNAc(b1-6)]Man(a1-6)[Gal(b1-4)GlcNAc(b1-2)Man(a1-3)]Man(b1-4)GlcNAc(b1-4)[Fuc(a1-6)]GlcNAc
# How it was run: (§1)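 Glycan array data came from 3228 arrays in the Consortium for Functional Glycomics database, and only arrays with an available protein sequence were kept. Glycan names were put into IUPAC-condensed notation, and columns mapping to the same glycan were averaged. The binding signal is a within-array Z-score, averaged across arrays of one protein sequence run at different concentrations or buffers and across linkers. A negative Z-score can be read as non-binding.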
# [2] = target: Gal(b1-4)GlcNAc(b1-2)[Gal(b1-4)GlcNAc(b1-6)]Man(a1-6)[GlcNAc(b1-4)][Gal(b1-4)GlcNAc(b1-2)Man(a1-3)]Man(b1-4)GlcNAc(b1-4)GlcNAc
# How it was run: as §1
# [3] = target: Gal(b1-4)GlcNAc(b1-2)[Gal(b1-4)GlcNAc(b1-6)]Man(a1-6)[GlcNAc(b1-4)][Gal(b1-4)GlcNAc(b1-2)[Gal(b1-4)GlcNAc(b1-4)]Man(a1-3)]Man(b1-4)GlcNAc(b1-4)[Fuc(a1-6)]GlcNAc
# How it was run: as §1
# [4] = target: Gal(b1-4)GlcNAc(b1-3)Gal(b1-3)GalNAc
# How it was run: as §1
# [5] = target: Gal(b1-4)GlcNAc(b1-3)Gal(b1-3)GlcNAc
# How it was run: as §1
# [6] = target: Gal(b1-4)GlcNAc(b1-3)Gal(b1-4)Glc
# How it was run: as §1
# [7] = target: Gal(b1-4)GlcNAc(b1-3)Gal(b1-4)GlcNAc
# How it was run: as §1
# [8] = target: Gal(b1-4)GlcNAc(b1-3)Gal(b1-4)GlcNAc(b1-2)Man(a1-3)[Gal(b1-4)GlcNAc(b1-3)Gal(b1-4)GlcNAc(b1-2)Man(a1-6)]Man(b1-4)GlcNAc(b1-4)GlcNAc
# How it was run: as §1
# [9] = target: Gal(b1-4)GlcNAc(b1-3)Gal(b1-4)GlcNAc(b1-2)Man(a1-3)[Gal(b1-4)GlcNAc(b1-3)Gal(b1-4)GlcNAc(b1-2)Man(a1-6)]Man(b1-4)GlcNAc(b1-4)[Fuc(a1-6)]GlcNAc
# How it was run: as §1
# [10] = target: Gal(b1-4)GlcNAc(b1-3)Gal(b1-4)GlcNAc(b1-2)[Gal(b1-4)GlcNAc(b1-3)Gal(b1-4)GlcNAc(b1-6)]Man(a1-6)[Gal(b1-4)GlcNAc(b1-3)Gal(b1-4)GlcNAc(b1-2)Man(a1-3)]Man(b1-4)GlcNAc(b1-4)GlcNAc
# How it was run: as §1
# [11] = target: Gal(b1-4)GlcNAc(b1-3)Gal(b1-4)GlcNAc(b1-2)[Gal(b1-4)GlcNAc(b1-3)Gal(b1-4)GlcNAc(b1-6)]Man(a1-6)[Gal(b1-4)GlcNAc(b1-3)Gal(b1-4)GlcNAc(b1-2)Man(a1-3)]Man(b1-4)GlcNAc(b1-4)[Fuc(a1-6)]GlcNAc
# How it was run: as §1
# [12] = target: Gal(b1-4)GlcNAc(b1-3)Gal(b1-4)GlcNAc(b1-3)Gal(b1-4)GlcNAc
# How it was run: as §1
# [13] = target: Gal(b1-4)GlcNAc(b1-3)Gal(b1-4)GlcNAc(b1-3)Gal(b1-4)GlcNAc(b1-2)Man(a1-3)[Gal(b1-4)GlcNAc(b1-3)Gal(b1-4)GlcNAc(b1-3)Gal(b1-4)GlcNAc(b1-2)Man(a1-6)]Man(b1-4)GlcNAc(b1-4)GlcNAc
# How it was run: as §1
# [14] = target: Gal(b1-4)GlcNAc(b1-3)Gal(b1-4)GlcNAc(b1-3)Gal(b1-4)GlcNAc(b1-2)Man(a1-3)[Gal(b1-4)GlcNAc(b1-3)Gal(b1-4)GlcNAc(b1-3)Gal(b1-4)GlcNAc(b1-2)Man(a1-6)]Man(b1-4)GlcNAc(b1-4)[Fuc(a1-6)]GlcNAc
# How it was run: as §1
# [15] = target: Gal(b1-4)GlcNAc(b1-3)Gal(b1-4)GlcNAc(b1-3)Gal(b1-4)GlcNAc(b1-2)[Gal(b1-4)GlcNAc(b1-3)Gal(b1-4)GlcNAc(b1-3)Gal(b1-4)GlcNAc(b1-6)]Man(a1-6)[Gal(b1-4)GlcNAc(b1-3)Gal(b1-4)GlcNAc(b1-3)Gal(b1-4)GlcNAc(b1-2)Man(a1-3)]Man(b1-4)GlcNAc(b1-4)[Fuc(a1-6)]GlcNAc
# How it was run: as §1
# [16] = target: Gal(b1-4)GlcNAc(b1-3)Gal(b1-4)GlcNAc(b1-3)Gal(b1-4)GlcNAc(b1-3)Gal(b1-4)GlcNAc(b1-2)Man(a1-3)[Gal(b1-4)GlcNAc(b1-3)Gal(b1-4)GlcNAc(b1-3)Gal(b1-4)GlcNAc(b1-3)Gal(b1-4)GlcNAc(b1-2)Man(a1-6)]Man(b1-4)GlcNAc(b1-4)GlcNAc
# How it was run: as §1
# [17] = target: Gal(b1-4)GlcNAc(b1-3)Gal(b1-4)GlcNAc(b1-3)Gal(b1-4)GlcNAc(b1-3)Gal(b1-4)GlcNAc(b1-2)Man(a1-3)[Gal(b1-4)GlcNAc(b1-3)Gal(b1-4)GlcNAc(b1-3)Gal(b1-4)GlcNAc(b1-3)Gal(b1-4)GlcNAc(b1-2)Man(a1-6)]Man(b1-4)GlcNAc(b1-4)[Fuc(a1-6)]GlcNAc
# How it was run: as §1
# [18] = target: Gal(b1-4)GlcNAc(b1-3)Gal(b1-4)GlcNAc(b1-3)Gal(b1-4)GlcNAc(b1-3)Gal(b1-4)GlcNAc(b1-2)[Gal(b1-4)GlcNAc(b1-3)Gal(b1-4)GlcNAc(b1-3)Gal(b1-4)GlcNAc(b1-3)Gal(b1-4)GlcNAc(b1-6)]Man(a1-6)[Gal(b1-4)GlcNAc(b1-3)Gal(b1-4)GlcNAc(b1-3)Gal(b1-4)GlcNAc(b1-3)Gal(b1-4)GlcNAc(b1-2)Man(a1-3)]Man(b1-4)GlcNAc(b1-4)[Fuc(a1-6)]GlcNAc
# How it was run: as §1
# [19] = target: Gal(b1-4)GlcNAc(b1-3)Gal(b1-4)GlcNAc(b1-3)Gal(b1-4)GlcNAc(b1-3)Gal(b1-4)GlcNAc(b1-3)Gal(b1-4)GlcNAc(b1-2)Man(a1-3)[Gal(b1-4)GlcNAc(b1-3)Gal(b1-4)GlcNAc(b1-3)Gal(b1-4)GlcNAc(b1-3)Gal(b1-4)GlcNAc(b1-3)Gal(b1-4)GlcNAc(b1-2)Man(a1-6)]Man(b1-4)GlcNAc(b1-4)GlcNAc
# How it was run: as §1
binder,measurement,setting,value
"Siglec-7-SA-PE-180 (Homo sapiens), Q9Y286 (protein) MLLLLLLPLLWGRERVEGQKSNRKDYSLTMQSSVTVQEGMCVHVRCSFSYPVDSQTDSDPVHGYWFRAGNDISWKAPVATNNPAWAVQEETRDRFHLLGDPQTKNCTLSIRDARMSDAGRYFFRMEKGNIKWNYKYDQLSVNVTALTHRPNILIPGTLESGCFQNLTCSVPWACEQGTPPMISWMGTSVSPLHPSTTRSSVLTLIPQPQHHGTSLTCQVTLPGAGVTTNRTIQLNVSYPPQNLTVTVFQGEGTASTALGNSSSLSVLEGQSLRLVCAVDSNPPARLSWTWRSLTLYPSQPSNPLVLELQVHLGDEGEFTCRAQNSLGSQHVSLNLSLQQEYTGKMRPVSGVLLGAVGGAGATALVFLSFCVIFIVVRSCRKKSARPAADVGDIGMKDANTIRGSASQGNLTESWADDNPRHHGLAAHSSGEEREIQYAPLSFHKGEPQDLSGQEATNNEYSEIKIPK",glycan array binding signal (z-score),[1],0.049
same,glycan array binding signal (z-score),[2],-0.412
same,glycan array binding signal (z-score),[3],-0.249
same,glycan array binding signal (z-score),[4],-0.464
same,glycan array binding signal (z-score),[5],-0.293
same,glycan array binding signal (z-score),[6],-0.525
same,glycan array binding signal (z-score),[7],-0.232
same,glycan array binding signal (z-score),[8],0.483
same,glycan array binding signal (z-score),[9],0.346
same,glycan array binding signal (z-score),[10],0.075
same,glycan array binding signal (z-score),[11],1.44
same,glycan array binding signal (z-score),[12],-0.091
same,glycan array binding signal (z-score),[13],0.23
same,glycan array binding signal (z-score),[14],0.243
same,glycan array binding signal (z-score),[15],0.678
same,glycan array binding signal (z-score),[16],0.618
same,glycan array binding signal (z-score),[17],0.025
same,glycan array binding signal (z-score),[18],-0.101
same,glycan array binding signal (z-score),[19],-0.144
